{"source": "ChEMBL document CHEMBL4888484", "about": "“Replenishing the malaria drug discovery pipeline: Screening and hit evaluation of the MMV Hit Generation Library 1 (HGL1) against asexual blood stage Plasmodium falciparum ,using a nano luciferase reporter read-out” (2022)", "note": "In all, about 150,000 compounds went through this assay and about 540 (0.36%) showed an effect of 50% or more. The list shows a part of the results."}
{"system": "Plasmodium falciparum", "assay": "Primary screen in NF54 nanoGlo assay, in single point, at 2uM, 72h; a lower Z score goes with more inhibition", "type": "functional, Erythrocyte", "settings": "timepoint 72 hour", "units": {"% Inhibition": "%"}}
{"smiles": "CCOC[C@H]1CCCN1Cc1[nH]cc(C)c(=O)c1C", "% Inhibition": -4, "Z score": 0.68}
{"smiles": "COc1cc(CNC2CCCCC2)cc(Br)c1OCc1ccccc1Cl", "% Inhibition": 35, "Z score": -0.59}
{"smiles": "CCn1nc(Cc2c(Cl)cccc2Cl)nc1CCN1CCCC1=O", "% Inhibition": -1, "Z score": 0.12}
{"smiles": "O=C1CC[C@@]2(CCCO2)CCN1CCCc1ccccc1", "% Inhibition": -9, "Z score": 1.85}
{"smiles": "CCCCC(CC)C(=O)N1CCC(C(=O)N[C@@H]2CCCC[C@H]2NC(=O)c2ccccc2)CC1", "note": "(stereo partly specified)", "% Inhibition": 3, "Z score": -0.36}
{"smiles": "Cc1ccc(CN(Cc2nc(C(=O)NCCc3ccccn3)co2)[C@@H](C)c2ccccc2)c(C)c1", "% Inhibition": -15, "Z score": 1.44}
{"smiles": "CC1(C)CO[C@H](c2ccccc2Cl)CN1CC(=O)N1CCNC(=O)C1", "% Inhibition": -11, "Z score": 1.64}
{"smiles": "COCC[C@H](NCC#N)c1ccc(Cl)cc1", "% Inhibition": -8, "Z score": 1.22}
{"smiles": "CCC(=O)N1CCN(C(=O)c2ccc3nccnc3c2)[C@H]2CS(=O)(=O)C[C@H]21", "% Inhibition": 5, "Z score": -0.51}
{"smiles": "CN1CCC(Nc2nc(-c3ccc(Cl)cc3)cc(C(F)F)n2)CC1", "% Inhibition": -8, "Z score": 0.98}
{"smiles": "COc1ccc(C(=O)Nc2cccc(C3OC(=O)N(Cc4ccc(C)cc4)C3C(=O)NCC(C)C)c2)cc1", "note": "(stereo unspecified)", "% Inhibition": -13, "Z score": 1.27}
{"smiles": "Cc1cnc(CCNC(=O)c2cccn2C)n1C1CCCC1", "% Inhibition": -7, "Z score": 1.03}
{"smiles": "Cc1nc([C@H]2CCN(C(=O)c3snnc3C)C2)n[nH]1", "% Inhibition": -1, "Z score": 0.19}
{"smiles": "O=C1OCCC1N1CCOC(c2ccc(Cl)cc2)C1", "note": "(stereo unspecified)", "% Inhibition": -15, "Z score": 1.88}
{"smiles": "COC(=O)CC[C@@H]1CN(Cc2cccc(F)c2)CC[C@@H]1N1CCN(c2cccc(C(F)(F)F)c2)CC1", "% Inhibition": -7, "Z score": 0.77}
{"smiles": "O=C(Nc1cccc(-n2cnnc2)c1)c1ccc(Cl)cc1F", "% Inhibition": -18, "Z score": 1.67}
{"smiles": "Cc1cccc(Oc2nc3ccccc3n3c(=O)n(CC(=O)NCc4ccccc4Cl)nc23)c1C", "% Inhibition": -14, "Z score": 2.27}
{"smiles": "Cc1nnc(NCc2ccccc2OCCN2CCOCC2)s1", "% Inhibition": -6, "Z score": 0.91}
{"smiles": "CN1CCN(S(=O)(=O)N2CCN(C(=O)COc3ccc(F)cc3)CC2)CC1", "% Inhibition": -1, "Z score": 0.12}
{"smiles": "Cc1c(Cl)cc2c(c1Cl)CCCN2C(=O)c1csnn1", "% Inhibition": -2, "Z score": 0.3}
{"smiles": "C=CCCS(=O)(=O)Nc1ccc(O)c(C)c1", "% Inhibition": -3, "Z score": 0.25}
{"smiles": "Cc1oc(-c2ccccc2)nc1Cn1nnc(C(=O)Nc2ccc3c(c2)OCCO3)c1N", "% Inhibition": -7, "Z score": 1.08}
{"smiles": "CC(C)c1ccc(N2CCN(CC(=O)NCc3ccccn3)C2=O)cc1", "% Inhibition": -9, "Z score": 1.58}
{"smiles": "O=C(Nc1ccc(N2CCN(c3ccccc3F)CC2)c(S(=O)(=O)N[C@H]2CCCc3ccccc32)c1)c1cccc2ccccc12", "% Inhibition": 4, "Z score": -0.6}
{"smiles": "CCS(=O)(=O)N1CCN(C[C@@H](O)c2cc3ccccc3o2)CC1", "% Inhibition": -1, "Z score": 0.12}
{"smiles": "CC(C)COc1ccc(C(=O)NC2CCC(n3cccn3)CC2)cn1", "note": "(stereo unspecified)", "% Inhibition": -13, "Z score": 2.49}
{"smiles": "O=C(NCc1ccccc1)N1C[C@@H]2OC(=O)N(CCc3ccc(F)cc3)[C@@H]2C1", "% Inhibition": 1, "Z score": -0.15}
{"smiles": "Cc1nn(C)c(C)c1CNC[C@H]1CN(C2CC2)CCO1", "% Inhibition": -16, "Z score": 2.33}
{"smiles": "O=C(c1c[nH]c2ccccc12)N1CC(C(=O)N2CCCC2)C1", "% Inhibition": -4, "Z score": 0.49}
{"smiles": "CN(CC1(C)COC1)C(=O)C(C)(C)Nc1ccccc1", "% Inhibition": -11, "Z score": 1.92}
{"smiles": "COCCOc1ccc(-c2cnc3nc(C)[nH]c3c2)cc1", "% Inhibition": -6, "Z score": 1.01}
{"smiles": "C[C@H]1COC2(CCC2)CN1C(=O)Cc1cc(Cl)cc(Cl)c1", "% Inhibition": -18, "Z score": 1.98}
{"smiles": "Cc1cc([C@H](C)NCc2nnc(C3CC3)n2C)c(C)o1", "% Inhibition": -15, "Z score": 1.36}
{"smiles": "NC(=O)C12CC(CN1C(=O)[C@H]1CCCOC1)C2", "% Inhibition": 1, "Z score": -0.07}
{"smiles": "Cc1cccc(CN2CCC[C@@]3(CCN(C(=O)CCc4ccco4)C3)C2)c1", "% Inhibition": -21, "Z score": 2.99}
{"smiles": "O=C(N[C@H]1CCOc2ccccc21)C1=CCC1", "% Inhibition": -7, "Z score": 0.66}
{"smiles": "COc1ccc2c(c1)Oc1cc(C)ccc1N=C2N1CCCN(C(=O)C(C)C)CC1", "% Inhibition": -2, "Z score": 0.18}
{"smiles": "O=C(NCc1ccccc1Cl)c1cc2n(n1)CCCO2", "% Inhibition": -15, "Z score": 2.26}
{"smiles": "O=C(Nc1ccc2[nH]ccc2c1)c1cc(-c2cccnc2)nc2ccccc12", "% Inhibition": -8, "Z score": 1.05}
{"smiles": "N#Cc1cnn(C(=O)c2cc(-c3ccccc3)nc3ccccc23)c1N", "% Inhibition": -5, "Z score": 0.5}
{"smiles": "CCOC(=O)Cc1csc(NC(=O)CN2CCC(COCc3ccc(F)cc3)CC2)n1", "% Inhibition": -10, "Z score": 1.11}
{"smiles": "CCn1nccc1C(=O)N1CCC(c2nnc(Cn3cccn3)n2C)CC1", "% Inhibition": 10, "Z score": -0.95}
{"smiles": "O=S(=O)(Cc1ccco1)[C@H]1CCN(S(=O)(=O)c2ccc3c(c2)CCCC3)C1", "% Inhibition": -5, "Z score": 0.87}
{"smiles": "C#Cc1cncc(C(=O)N(C)Cc2cc(C)on2)c1", "% Inhibition": -9, "Z score": 1.07}
{"smiles": "c1ccc(-n2ncc3c2CCC[C@@H]3NCc2cccnc2)nc1", "% Inhibition": -5, "Z score": 0.81}
{"smiles": "CCOc1ccc2c(c1)-c1c(ssc1=S)C(C)(C)N2C(=O)c1cccnc1", "% Inhibition": 8, "Z score": -0.93}
{"smiles": "O=S(=O)(NC[C@H]1CC2c3ccccc3C1c1ccccc12)c1cccs1", "% Inhibition": -1, "Z score": 0.12}
{"smiles": "O=C(NCc1c[nH]nc1-c1ccc(F)cc1)N1CC[C@H](N2CCCCC2)C1", "% Inhibition": -4, "Z score": 0.77}
{"smiles": "Cc1nccc(O)c1OCC(=O)Nc1cccc(C(F)(F)F)c1", "% Inhibition": -10, "Z score": 1.84}
{"smiles": "Cc1cc(Br)cnc1N1CCN([C@H]2CCS(=O)(=O)C2)CC1", "% Inhibition": -13, "Z score": 2.5}
{"smiles": "CCn1c(C2CCNCC2)nn(CC(=O)N[C@@H](C)c2ccc(C)cc2)c1=O", "% Inhibition": -2, "Z score": 0.37}
{"smiles": "Cc1cc(=O)c(C(=O)Nc2c(F)cccc2NC(C)C)c[nH]1", "% Inhibition": -2, "Z score": 0.29}
{"smiles": "O=C(Cc1cccc(Cl)c1)N[C@H]1CCN(Cc2cscn2)C[C@@H]1O", "% Inhibition": -7, "Z score": 0.88}
{"smiles": "Cc1ccc(C)c(OCCn2ncc3[nH]cnc3c2=O)c1", "% Inhibition": -8, "Z score": 1.28}
{"smiles": "CCN1CCN(C(=O)CN2C(=O)COc3ccc(C(=O)COc4ccc(Cl)cc4F)cc32)CC1", "% Inhibition": 2, "Z score": -0.21}
{"smiles": "Cc1ccc2sc(N(Cc3cccnc3)C(=O)C3=COCCO3)nc2c1C", "% Inhibition": -13, "Z score": 2.44}
{"smiles": "O=C(Nc1cc(-n2cncn2)ncn1)c1cncc(Br)c1", "% Inhibition": -14, "Z score": 2.38}
{"smiles": "CC[C@H](C)n1nc(NC(=O)C(=O)Nc2c(OC)ncnc2N(C)C)cc1C", "% Inhibition": -1, "Z score": 0.08}
{"smiles": "Cc1nc2cc(NS(=O)(=O)CCOc3ccccc3)ccc2s1", "% Inhibition": -11, "Z score": 2.15}
{"smiles": "CCc1ccccc1OCCN1CCOC[C@](O)(CN2CCCC2)C1", "% Inhibition": -4, "Z score": 0.75}
{"smiles": "CCc1nc(CN2C(=O)OC(C)(C)C2=O)cs1", "% Inhibition": -14, "Z score": 1.72}
{"smiles": "CN(C)C1CCN(Cc2cc(Br)cc3c2OCC3)CC1", "% Inhibition": -6, "Z score": 0.72}
{"smiles": "COc1ccc(-c2cc(-c3cccnc3)nc(N)c2C#N)c(OC)c1C", "% Inhibition": 2, "Z score": -0.24}
{"smiles": "CN(C)c1ccc(C(=O)N2CC(S(=O)(=O)N3CCOCC3)C2)cn1", "% Inhibition": 5, "Z score": -0.61}
{"smiles": "CN(C)CC(=O)NC1(Cc2ccccc2)CC1", "% Inhibition": -11, "Z score": 1.53}
{"smiles": "CCS(=O)(=O)c1ccc(N2CCC(Cc3nccn3C)CC2)cc1", "% Inhibition": -4, "Z score": 0.36}
{"smiles": "COc1ccc(C(=O)Nc2cnn(CCN3CCCCC3)c2)nc1", "% Inhibition": -6, "Z score": 1.1}
{"smiles": "O=C(COC(=O)c1ccc(S(=O)(=O)N2CCCCC2)cc1)Nc1cccc(C(F)(F)F)c1", "% Inhibition": -1, "Z score": 0.2}
{"smiles": "COc1ccc(C2C(C(=O)O)c3ccccc3C(=O)N2C2CCCC2)cc1", "note": "(stereo unspecified)", "% Inhibition": 4, "Z score": -0.69}
{"smiles": "CC(C)(C)OC(=O)N1C2CCC1CC(NC(=O)CCc1ccco1)C2", "note": "(stereo unspecified)", "% Inhibition": -5, "Z score": 0.9}
{"smiles": "NC(=O)C1CCN(C(=O)CN2CCCC2CC2CC3CCC2C3)CC1", "note": "(stereo unspecified)", "% Inhibition": -9, "Z score": 0.97}
{"smiles": "CCCS(=O)(=O)N1CCN(c2nc(C3CC3)nc(COC)c2Cc2cccc(C)c2)CC1", "% Inhibition": -4, "Z score": 0.49}
{"smiles": "O=C1CCN(C(=O)c2cccc(-c3ccccc3F)c2)CCN1Cc1ccccn1", "% Inhibition": 3, "Z score": -0.29}
{"smiles": "Cc1nn(C)c(C)c1CCN(C)c1nc(C2CC2)nc2c1CCC2", "% Inhibition": -19, "Z score": 2.07}
{"smiles": "Cn1c(CO)nnc1C1CCN(C(=O)c2ccc(-c3cnccn3)cc2)CC1", "% Inhibition": 12, "Z score": -1.52}
{"smiles": "COC(=O)C(C)(C)[C@H]1CCCN(C(=O)CCc2ccncc2)C1", "% Inhibition": -1, "Z score": 0.18}
{"smiles": "Cc1nc(CN2c3ccccc3OC[C@@H]2C)oc1C", "% Inhibition": -9, "Z score": 1.27}
{"smiles": "Cc1ccc2c(c1)S(=O)(=O)NCCOCCOCCNS(=O)(=O)c1cc(C)ccc1OCCOCCO2", "% Inhibition": -9, "Z score": 1.27}
{"smiles": "Cc1nnc(N2CCC(C(=O)NCCN3CCCC3)CC2)c2nn(-c3ccc(Cl)cc3)c(C)c12", "% Inhibition": 15, "Z score": -1.73}
{"smiles": "CC(C)(C)OC(=O)N1C2CCCC1CN(C(=O)Nc1cccc3[nH]ccc13)C2", "% Inhibition": 1, "Z score": -0.28}
{"smiles": "CCC(=O)N1CCC2(CC1)C[C@@H](N(Cc1ccccc1)C1CC1)CCO2", "% Inhibition": 6, "Z score": -1.06}
{"smiles": "COc1ccc([C@@H]2NCCC23C(=O)N(Cc2ccccc2)c2ccccc23)cc1", "note": "(stereo partly specified)", "% Inhibition": 2, "Z score": -0.36}
{"smiles": "O=C(Cn1cccc1-c1nc(-c2ccccc2)cs1)N1CCC(N2CCCCC2)CC1", "% Inhibition": 0, "Z score": -0.04}
